From the RNAGym collection of RNA variant scans (doi:10.7554/elife.90254) come the findings set out here.

Read counts are not given, so values of variants with three or more changes are uncertain.

To fix the notation:
B1: OR4K15 (parent)
chain: GUUAACGGUCAUAGGCCAUGGAAACUAGGAGCACCAUUUCGCUGCCAGUGAAGAAAUGAACAAAGAAAAUCUGGGCCAGGCAGGCAUCAAAAGAAAUAGUCUUGCGCUCAACCAGAAAGUCUGUAAUCAUUUUAAGGGUA

The variants in the data set derive from B1. As to the kind of experiment: self-cleavage, relative activity (ratio to wild type); higher = more cleavage; in vitro, sequencing; the parent is a self-cleaving ribozyme.
For A22G A33G A69G, the self-cleavage worked out at 0.8.
A23G A51U A54G A117U: the self-cleavage is 0.82.
In the case of A22G A62U A68G A69G G79A it was 0.39; in that of A22G A54G A111G U131C, 0.02.
In the case of A22G A68G U103C it was 1.4; in that of A22G A36U G58U A90G U132A, 1.74; in that of A22G A24G A64G, 0.94.
For the variant A23G A33G A111G, the self-cleavage is 0.06.
In the case of A23G A47U U87C A91G U131C it was 0.22.
With A23G A52G A117G G123A the figure was 1.73; with A22G U49A A52G A67C A125G, 0.82.
With A22G A47G A62G A89U U102C A114G, the self-cleavage amounted to 0.22.
With A22G A30G A116C the figure was 0.23; with A22G A30G U102C, 1.78; with A22G A24G A114G, 0.73.
With A22G A36G A134G the figure was 1.09.
With A22G C77A G106C, the self-cleavage turned out to be 0.
With A23G A36G A126G the figure was 0.62; with A22G C42U U120C A140G, 0.61.
In the case of A22G A68G A89G A118G G137A it was 0.99; in that of A23G A24U U87A U132C, 1.06.
For A22G G44A U102C, the self-cleavage was found to be 1.52.
For A22G U39A A69G, the self-cleavage was determined as 1.21.
In the case of A22U A89G A90G G136A it was 0.97; in that of A22G A89G U139C, 1.14; in that of A22G A117G U130C, 1.08.
In the case of A22G U39C U103C A110G it was 0.23.
For the variant A22G A54G U100C, the self-cleavage worked out at 2.03.
For A22G A68G U103C U131C, the self-cleavage is 0.19.
For A22G A54G A78G A95G, the self-cleavage was determined as 0.17.
With A22C U100A C113A the figure was 0.03; with A22G A47U U49C A59U U127C, 0.24; with A23C A47G A64G A78U, 0.16.
In the case of A22G A91U A96U it was 0.86.
With A22G U72C A82U A86G A95G the figure was 0.31.
For A22U A56G A68G, the self-cleavage was found to be 0.87.
In the case of A23G A24G C45U A56G A59G A64G A94G it was 1.19.
With A22G A92G U97C the figure was 1.35.
With A22G A24C A129G the figure was 0.57.
For the variant A22G A55G A69G C71A, the self-cleavage was 0.38.
In the case of A22G U38C A59G A94G it was 1.41.
For the variant A22G C32U A62G A110G U130C, the self-cleavage is 0.05.
A22G A89G C101U: the self-cleavage turned out to be 0.3.
In the case of A23G A52G A86U it was 1.41; in that of A22G A68G A95G U102C, 1.44.
In the case of A22G U39C G41C A59G C85U, the self-cleavage was found to be 0.48.
As to A22G U39C A47U, the self-cleavage stood at 1.23.
As for A22G U37C U43A A94G, the self-cleavage stood at 1.18.
With A22C A55G A62G A94G A116G the figure was 0.28; with A22G A24G U102A U108C, 0.03.
As to A22G A86G A90G U102C A118G U130C, the self-cleavage was 0.76.
In the case of A22U A66G G74A U131C it was 0.2; in that of A22G A47G G75A, 0.18.
With A22G A67G A126G the figure was 1.5; with A22G A24G A140U, 1.15.
Take A22U A94G U132C: the self-cleavage was 1.26.
In the case of A22U A23G A118G it was 0.91.
With A23G A51G A52U U122A the figure was 0.83.
In the case of A23G A52G U57C A68G A117G, the self-cleavage was determined as 1.2.
As to A22U A54G A64C, the self-cleavage came out at 1.07.
With A22G A24G A56G A116G U139C the figure was 0.76.
As to A23G A51G A66G A116G, the self-cleavage stood at 0.43.
For A22G A62G A66G A78G A110U, the self-cleavage came out at 0.97.
In the case of A22G U49C U70C C81A G84A, the self-cleavage was found to be 0.15.
With A22U U49C A95G the figure was 2.34; with A23G A24G U49C A52G A54G A55G U133C A134G, 0.36; with A22G A116G U127C U132C, 0.18.
For A22G U26C A118G, the self-cleavage came to 0.44.
With A22G A23G A60U, the self-cleavage stood at 2.17.
In the case of A23G A24G A96G A118U it was 1.06.
With A22G U38C A51G A66G C77U A126G A129U the figure was 0.68; with A22G A47G A52G U103C, 0.21.
In the case of A22G A36U U43A U103C U130C it was 1.16; in that of A22G A56G A66G, 1.41; in that of A22G U39C G48A A59G, 0.96.
In the case of A22U A78U C105U, the self-cleavage was found to be 0.01.
With A22G A82G U124C A125G the figure was 0.59; with A22G A92U A111G A114G, 0.03.
As to A22U U26C A64U C71U, the self-cleavage worked out at 0.18.
For the variant A22G A30G U72C, the self-cleavage came to 0.28.
As for A23G A51U U102C, the self-cleavage worked out at 1.47.
For the variant A22G A24G A51U U72C A94G A111G, the self-cleavage worked out at 0.08.
With A22U A27G A55G the figure was 1.24; with A22G C42U U139C, 0.88; with A22G A59C A90G, 0.26.
In the case of A22C A23G A82U U100C U122C A140C it was 0.36; in that of A23G A27G A62U U100C, 1.18; in that of A23G A27U U38A A59U, 0.58.
Regarding A23G A27G U39C A62G, the self-cleavage came out at 0.81.
In the case of A22U A62U A90G C109U it was 0.27; in that of A22G A95G A116U, 0.48; in that of A23G A52G A82U, 0.09.
For A22U A24G U39A C88A, the self-cleavage is 1.51.
In the case of A22G A23G U26C it was 0.74; in that of A22G U38C A52G U102A, 0.96.
As to A22G A64G U108C, the self-cleavage turned out to be 0.
In the case of A22G A51C A78G U120C it was 0.27; in that of A22G U38A G65U A89G A110G, 0.02; in that of A22G A60G U70A A129U, 0.56.
With A22G U38C A89G A110G the figure was 0.13.
With A23G A33G U102C the figure was 1.77; with A22G A51U A62G, 1.46.
On to A22G U72C A82U A118G, for which the self-cleavage was 0.02.
In the case of A23G A27U U43A A54U A110G A116U U122C U133A it was 0.02.
With A22U U124C A135U, the self-cleavage was 0.72.
In the case of A22U A69G A78G U120C it was 0.1.
In the case of A22U A47G A126G U130C it was 0.32.
Regarding A22G A33G A78G, the self-cleavage came to 0.15.
With A22C A30G A67U C128A the figure was 1.16; with A22U A111G A114G, 0.02.
In the case of A23C A47U U49G A140G it was 0.49; in that of A22G A23G A111G, 0.
As to A22U U37G U87C U102A, the self-cleavage came to 0.17.
In the case of A22G A59G A78U A91G it was 0.09.
With A22G A51G U132G the figure was 1.73.
In the case of A22G A52U A118G it was 0.95; in that of A22G U38A U39C A69G A98U, 2.21.
Turning to A23G A27G U38C U57A U87C, the self-cleavage stood at 1.18.
With A22G A52G U108C A114C the figure was 0.02.
On to A22G C25U A96G, for which the self-cleavage stood at 1.86.
For the variant A22G A52U A117G, the self-cleavage is 1.17.
In the case of A23G A51C A66G, the self-cleavage was 1.31.
With A23G A33G A114G the figure was 0.3; with A22G U127C A129G U131C, 0.39; with A22G A90G U103C, 0.21.
In the case of A22U C112A A116G, the self-cleavage came to 0.
Consider A22G A78G A116G A118G U139A, for which the self-cleavage is 0.05.
In the case of A22G G29U U49C A66G A69G A95G U97C it was 0.82; in that of A22G A63G A64G A66G U108C, 0.1; in that of A22G A68U A69G G84A, 0.63.
In the case of A22G A54G C85U it was 0.85.
Turning to A22U A52U U100C A125G U130C, the self-cleavage worked out at 1.19.
With A22G A68G A92G the figure was 0.47; with A22G A91G U124C, 0.24; with A23G A24G G104A, 0.
In the case of A23G A24G A27G A30G it was 1.09; in that of A22G A114U A126G, 0.01; in that of A22G U49C A68G U87A A96U, 1.43.
A22G A95G U131C: the self-cleavage came out at 2.62.
In the case of A23G A52G A56G A92G U97C it was 1.05; in that of A23C A67G U127G, 1.59.
On to A22G A27G A51G A62G A94G, for which the self-cleavage is 1.24.
With A22G U37C A69G the figure was 0.9; with A22G U87A A92G, 1.44.
In the case of A22G U43A A67G A96G it was 0.95.
With A22G A82G A117G G137A, the self-cleavage was found to be 0.68.
With A22G A66U A67G G84U the figure was 0.34; with A22U A89G C112U, 0.01; with A22G U39A U102C A116G, 1.2.
With A22G A24G A91G A98C U108C, the self-cleavage was found to be 0.01.
On to A23G A47G A62G A118G A126G U131C, for which the self-cleavage was determined as 0.14.
With A22U A66G U102A the figure was 0.91; with A23G A51G A117G A126G, 1.99; with A22U A89G A126U, 0.72.
In the case of A23G A47G A96G it was 1.5; in that of A22G U49C U124C G137A, 1.08.
For the variant A23G A33U A62U U130C, the self-cleavage came out at 0.
With A23G A47G A59U A66G A126U the figure was 0.41.
With A22G A56G U72A the figure was 0.14; with A22G U57C A66G G79A, 0.15.
For A22G A59U A110U U132C, the self-cleavage is 1.61.
In the case of A23G A24G U38C A54G it was 1.06.
In the case of A23G A36G A54G U57C A67G A86G it was 0.76.
In the case of A22G A78G U97C it was 0.24; in that of A22U U49C A86U, 1.74.
As to A22G U37G A92G, the self-cleavage was 0.8.
Regarding A22G A69G A86U, the self-cleavage came to 1.19.
